The values that follow come from the RNAGym collection of RNA variant scans (doi:10.7554/elife.90254).

The source gives no read counts; variants with many changes may rest on few reads.

To fix the notation:
B1: LINE1-full (parent)
chain: UACGUAGGUGGUUUUCCCCUGAUAGUGCUAAGGGGGCCUGGAAGUUUGGACUGGGCAGAGCUCAACACAGCGUGGCAAAGUGGCUGUGGCUAGACUGCCUCUCUGGAUUCCUCGUCACUCAGCAGGGCAUCUCUGAGAGAAAUGCC

Variants of B1 are the subject of this data set. Kind of data set: self-cleavage, relative activity (ratio to wild type); higher = more cleavage; in vitro, sequencing; the parent is a self-cleaving ribozyme.
On to UACGUAGGUGGUUUUCCCCUGAUAGUGCUAAGGGGGCCUGGAAGUUGGGACUGGGCAGAGCACAACACAGCGUGGCAAAGUGGCUGCGGCUAGACUGCAUCUCUGGAUUCCUCGUCACUCAGCAGGGCAUCUCUGAGAGAAAUGCC, for which the self-cleavage worked out at 0.2.

As for UACGUAGGUGGUUUUCCCCUGAUAGUGCUAAGGGGGCCUGGAAGUUUAGACUGGGCAGAGCUCAACACAGCGUGGCAAAGUGGCUGUGGCUAGACAGCCUCUCUGGAUUCCUCGUCACUCAGCAGGGCAACUCUGAGAGAAAUGCC, the self-cleavage was found to be 0.06.

In the case of UACGUAGGUGGUUUUCCCCUGAUAGUGCUAAGGGGGCCUGGAAGUUUAGACUGGGCAGAGCUCAACACAGCGUGGCAAAGUGGCUGUGGCUAGACUGCCUCUCUGGGUUCCUCGUCACUCAGCAGGGCAUCUCCGAGAGAAAUGCC, the self-cleavage is 1.71.

Consider UACGUAGGUGGUUUUCCCCUGAUAGUGCUAAGGGGGCCUGGAAGUUUGAACUGGGCAGAGCUCAACACAGCGUGGCAGAGUGGCUGUGGCUAGACUGCCCCUCUGGAUUCCUCGUCACUCAGCAGGGCAUCUCUGAGAGAAAUGCC, for which the self-cleavage was 1.91.

As for UACGUAGGUGGUUUUCCCCUGAUAGUGCUAAGGGGGCCUGGAAGUUUAGACCGGGCAGAGCUCGACACAGCGUGGCAAAGUGGCUGUGGCUAGACUGCCUCUCUGGAUUCCUCGUCACUCAGCAGGGCAUCUCUGAGAGAAAUGCC, the self-cleavage stood at 0.2.

As for UACGUAGGUGGUUUUCCCCUGAUAGUGCUAAGGGGGCCUGGAAGUUUGAACUGGGCUGAGCUCAACACAGCGUGGCAAAGUGGCUGAGGCUAGACUGCCUCUCUGGAUUCCUCGUCACUCAGCAGGGCAUCUCUGUGAGAAAUGCC, the self-cleavage stood at 0.05.

As to UACGUAGGUGGUUUUCCCCUGAUAGUGCUAAGGGGGCCUGGAAGUUUGAACUGGGUAGAGCUCAACACAGCGUGGCAAAGUGGCUGUGGCUAGACCUCCUCUCUGGAUUCCUCGUCACUCAGCAGGGCACCUCUGAGAGAAAUGCC, the self-cleavage amounted to 0.

On to UACGUAGGUGGUUUUCCCCUGAUAGUGCUAAGGGGGCCUGGAAGUUUCGACUGGGCAGAGCUCAACGCAGCGUGGCAAGGUGGCUGUGGCUAGACAGCCUCUCUGGAUUCCUCGUCACUCAGCAGGGCAUCCCUGAGAGAAAUGCC, for which the self-cleavage worked out at 0.13.

UACGUAGGUGGUUUUCCCCUGAUAGUGCUAAGGGGGCCUGGAAGUUUAGACUGGGCAGAGCUCAACACAGCGUGGCAAAGUGGCUGUGGCCAGACUGCCUCUCUGGAUUCCUCGUCACUCAGCAGGGCAUCCCUGAGAGAAAUGCC: the self-cleavage stood at 0.46.

With UACGUAGGUGGUUUUCCCCUGAUAGUGCUAAGGGGGCCUGGAAGUUUGAACUGGGCAGUGCUCAACACAGCGUGGCAAAGUGGCUGUGGCUAGACUGCCUCUCUGGAUUCCUCGUCACUCAGCAGGGCAUCUCUGAGAGAUAUGCC, the self-cleavage was 0.53.

Consider UACGUAGGUGGUUUUCCCCUGAUAGUGCUAAGGGGGCCUGGAAGUUUUGACUGGGCUGAGCUCAACACAGCGUGGCAAAGUGGCUGUGGCUAGACUGCCUCUCUGGAUUCCUCGUCACUCAGCAGGGCAUCUCAGGGAGAAAUGCC, for which the self-cleavage worked out at 0.02.

Consider UACGUAGGUGGUUUUCCCCUGAUAGUGCUAAGGGGGCCUGGAAGUUUAGACUGGGCAGAGCCCUACACAGCGUGGCAAAGUGGCUGUGGCUAGACUGCCUCUCUGGAUUCCUCGUCACUCAGCAGGGCAUCUCUGAGAGAAACGCC, for which the self-cleavage is 0.02.

UACGUAGGUGGUUUUCCCCUGAUAGUGCUAAGGGGGCCUGGAAGUUUGAACUGGGCUGAGCUCAACGCAGCGUGGCAAAGUGGCUGUGGCUAGACUGCCUCUCUGGAUUCCUCGUCACUCAGCAGGGCAUCUCUGGGAGAAAUGCC: the self-cleavage is 0.11.

As to UACGUAGGUGGUUUUCCCCUGAUAGUGCUAAGGGGGCCUGGAAGUUUUGACAGGGCAGAGCUCAACACAGCGUGGCAAAGUGGCUGUGGCUAGACUGCCUCUCUGGAUUCCUCGUCACUCAGCAGGGCAUCUCUGAGAGAAACGCC, the self-cleavage was determined as 0.49.

As for UACGUAGGUGGUUUUCCCCUGAUAGUGCUAAGGGGGCCUGGAAGUUUAGACUGGGCAGAGCUCAACACGGCGUGGCAGAGUGGCUGUGGCUAGACCGCCUCUCUGGAUUCCUCGUCACUCAGCAGGGCAUCUCUGAGAGAAAUGCC, the self-cleavage came to 0.

Regarding UACGUAGGUGGUUUUCCCCUGAUAGUGCUAAGGGGGCCUGGAAGUUUAGACUGGGCAGAGCUCAACACAGCGUGGCAAAGUGGCUGUGGCUAGACUGCCUCUCUGGAUUCCUCGCCACUCAGCAGGGCAUCUCUGAGAGGAAAGCC, the self-cleavage stood at 1.63.

In the case of UACGUAGGUGGUUUUCCCCUGAUAGUGCUAAGGGGGCCUGGAAGUUUGAACUGGGCUGAGCUCAACACAGCGUGGCAAAGUGGCUGUGGCUAGACUGCCUCUCUGGAUUCCUCGUCACUCGGCAGGGCAUCUCUGAGAGAAAUGCC, the self-cleavage was 0.03.

For the variant UACGUAGGUGGUUUUCCCCUGAUAGUGCUAAGGGGGCCUGGAAGUUUGAACUGGGCAGAGCUCAAGACAGCGUGGCAAAGUGGCUGUGGCUAGACUGCCUCUCUGGAUUCCUCGUCACUCAGCAGGGCACCUCUGAGAGGAAUGCC, the self-cleavage stood at 0.05.

For UACGUAGGUGGUUUUCCCCUGAUAGUGCUAAGGGGGCCUGGAAGUUUAGACUGGGCAUAGCUCAACACCGCGUGGCAAAGUGGCUGUGGCUAGACUGCCUCUCUGGAUUCCUCGUCACUCAGCAGGGCAUCUCUGAGAGAAAUGCC, the self-cleavage stood at 0.02.

Take UACGUAGGUGGUUUUCCCCUGAUAGUGCUAAGGGGGCCUGGAAGUUUAGGCUGGGCAGAGCUCAACACAGCGUGGCAGAGUGGCUGUGGCUAGACUGCCUCUCUGGAUUCCUCGUCACUCAGCAGGGCAUCUCUGGGAGAAAUGCC: the self-cleavage amounted to 1.26.

Consider UACGUAGGUGGUUUUCCCCUGAUAGUGCUAAGGGGGCCUGGAAGUUUCGACUGGGCAGAGCUCAACACAGCGUGGCAAAGUGGCUGUGGCUAGACUGCCUCUCUGGAUUCCUCGUCACUCAGCAGGGCAUCUCUGAGAGGAGUGCC, for which the self-cleavage worked out at 1.14.

Consider UACGUAGGUGGUUUUCCCCUGAUAGUGCUAAGGGGGCCUGGAAGUUUUGACUGGGCAGAGCCCAACACAGCGUGGCAAAGUGGCUGUGGCUAGACUGCCUCUCUUGAUUCCUCGUCACUCAGCACGGCACCUCUGAGAGAAAUGCC, for which the self-cleavage worked out at 0.07.

With UACGUAGGUGGUUUUCCCCUGAUAGUGCUAAGGGGGCCUGGAAGUUUAGACUGGGCAGAGCUCAACACAGCGUGGCAAAGUGGCUGUGGCUAGACUGCCUCUCUGGAUUCCUCGUCACUCAGCAGGGCGUCUCUGAGAGAAGUGCC, the self-cleavage amounted to 1.1.

Turning to UACGUAGGUGGUUUUCCCCUGAUAGUGCUAAGGGGGCCUGGAAGUUUAGACUGGGCAGAGCUCAACACAGCGUGGCAAAGUGGCUGUGGCUAGACUGCCUCUCUGGAUUCCUCGUCACUCAGCAGGGCAUCACUGAGUGAAAUGCC, the self-cleavage stood at 1.32.

Turning to UACGUAGGUGGUUUUCCCCUGAUAGUGCUAAGGGGGCCUGGAAGUUUAGACUGGGCAGAGCUCAACACAGCGUGGCAAAGUGGCUGUGGCUAGACUGCCUCUCUGGAUUCCUCGUCACUCAGCAGGGCAUCCCUGGGAGAAAUGCC, the self-cleavage came to 1.6.

Regarding UACGUAGGUGGUUUUCCCCUGAUAGUGCUAAGGGGGCCUGGAAGUUUUGACUGGGCAGAGCUCAACACAGCGUGGCGAGGUGGCUGUGGCUAGACUGCCUCUCUGGAUUCCUCGUCACUCAGCAGGGCAUCUCUGAGAGAAAUGCC, the self-cleavage stood at 0.35.

As to UACGUAGGUGGUUUUCCCCUGAUAGUGCUAAGGGGGCCUGGAAGUUGGGACUGGGCAGAGCCCAACACAGCGUGGCAAAGUGGCUGUGGCUAGACUGCCUCUCUGGAUUCCUCGUCACUCAGCAGGGCAUCUCUGAGAGAGAUGCC, the self-cleavage was found to be 0.08.

With UACGUAGGUGGUUUUCCCCUGAUAGUGCUAAGGGGGCCUGGAAGUUUAGACUGGGCAAAGCUCAACACAGCGUGGCGAAGUGGCUGUGGCUAGACUGCCUCUCUGGAUUCCUCGUCACUCAGCAGGGCAUCUCUGAGAGAAAUGCC, the self-cleavage amounted to 0.05.

On to UACGUAGGUGGUUUUCCCCUGAUAGUGCUAAGGGGGCCUGGAAGUUUGAGCUGGGCAGAGCUCCACACAGCGUGGCAAAGUGCCUGUGGCUAGACUGCCCCUCUGGAUUCCUCGCCACUCAGCAGGGCAUCUCUGUGGGAAUUGCC, for which the self-cleavage was 0.

As for UACGUAGGUGGUUUUCCCCUGAUAGUGCUAAGGGGGCCUGGAAGUUUGAACUGAGCAGAGCUCAACACAGCGUGGCAAAGUGGCUGUGGCUAGACUGCCUCUCUGGAUUCCUCCUCACUCAGCAGGGCAUCUCUGAGAGAAAUGCC, the self-cleavage is 0.41.

For UACGUAGGUGGUUUUCCCCUGAUAGUGCUAAGGGGGCCUGGAAGUUUAGACUGGGCGGAGCUCAACACAGCGUGGCGAAGUGGCAGUGGCUAGACUGCCUCUCUGGAUUCCUCGUCACUCAGCAGGGUAUCUCUGAGAGAAAUGCC, the self-cleavage is 0.05.

For UACGUAGGUGGUUUUCCCCUGAUAGUGCUAAGGGGGCCUGGAAGUUGGGACUGGGCAGAGCUCAACACAGCGUGGCAAAGAGGCUGUGGCUAGACUGCCUCUCUGGAUUCCUCGUCACUCAGCAGGGCACCUCUGAGAGAAAUGCC, the self-cleavage was 0.5.

With UACGUAGGUGGUUUUCCCCUGAUAGUGCUAAGGGGGCCUGGAAGUUUAGACUGGGCAGAGCUCAACACAGCGUGGCAAGGUGGCUGUGGCUAGACUGCCUCUCUGGAUUCCUCGUCACUCAGCGGGGCAUCUCUGAGAGAAAUGCC, the self-cleavage came to 0.38.

With UACGUAGGUGGUUUUCCCCUGAUAGUGCUAAGGGGGCCUGGAAGUUGGGACUGGGCAGAGCUCAACACAGCGUGGCAAAGUGGCUGUGGCUAGACUGCCUCUCCGGAUUCCUCGUCACUCAGCAGGGCAUCUCUGAGAGGAAUGCC, the self-cleavage came to 1.88.

Regarding UACGUAGGUGGUUUUCCCCUGAUAGUGCUAAGGGGGCCUGGAAGUUUAGACAGGGCAGAGCUCAACACUGCGUGGCAAAGUGGCUGUGGCUAGACUGCCUCUCUGGAUUCCUCGUCACUCAGCAGGGCAUCUCUGAGAGAAAUGCC, the self-cleavage was determined as 0.05.

For the variant UACGUAGGUGGUUUUCCCCUGAUAGUGCUAAGGGGGCCUGGAAGUUUAGACUGGGCAGAGCUCAACACAGCAUGGCAAAGCGGCUGUGGCUAGACUGCCUCUCAGGACUCCUCGUCACUCAGCAGGGCAUCUCUGAGAGAAAUGCC, the self-cleavage was determined as 1.67.

Consider UACGUAGGUGGUUUUCCCCUGAUAGUGCUAAGGGGGCCUGGAAGUUGGGACUGGGCAGAGCUCAACACAGCGUGGCAAAGUGGCUGUGGCUAGACUGCCACUCUGGAUUCGUCGUCACUCAGCAGGGCAUCUCUGAGAGAAAUGCC, for which the self-cleavage worked out at 0.77.

Turning to UACGUAGGUGGUUUUCCCCUGAUAGUGCUAAGGGGGCCUGGAAGUUUAGACUGGGCAGAGCCCAACACAGCGUGGCAAAGUGGCUGGGGCUAGACUGCCUCUCUGGAUUCCUCGUCACUCAGCAGGGCAUCUCUGAGAGAAAUGCC, the self-cleavage came out at 0.03.

Turning to UACGUAGGUGGUUUUCCCCUGAUAGUGCUAAGGGGGCCUGGAAGUUUGAACUGGGCAGAGCUUAACACAGCGUGGCAAAGUGGCUGUGGCUAGACUGUCUCUCUGGAUUCCUCGUCACUCAGCAGGGCAUCUCUGAGAGAAAUGCC, the self-cleavage stood at 0.1.
